This is one part of the list. Many values rest on one well or one pass, so single values are uncertain.
What was measured:
Experiment in all cases: cell count relative to DMSO control; melanoma cells; higher = more viable cells
Conditions in all cases: library dose: low library concentration; 72 h
WM115 = tested on: WM115
WM1716 = tested on: WM1716
WM1745 = tested on: WM1745
WM3526 = tested on: WM3526
WM3619 = tested on: WM3619
WM451Lu = tested on: WM451Lu
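Further: cell number obtained by counting DAPI-stained nuclei in high-throughput microscope images with image analysis software, screen run in 1,536-well plates.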

| SMILES | cell count (WM115) [%] | cell count (WM1716) [%] | cell count (WM1745) [%] | cell count (WM3526) [%] | cell count (WM3619) [%] | cell count (WM451Lu) [%] |
| --- | --- | --- | --- | --- | --- | --- |
| O=C(O)c1ccc2c(c1)nc(Nc1cccc(Cl)c1)c1ccncc12 + O=C(CCCCCCC(=O)Nc1ccccc1)NO [vorinostat] (first compound 0.4 µM, partner dose 0.08 µM) | 102 | 90.4 | 123 | 106 | 59.5 | 105 |
| O=C(Nc1cc(C(F)(F)F)cc(C(F)(F)F)c1)c1cc(Cl)ccc1O + Oc1nc(-c2ccc(C(F)(F)F)cc2)nc2c1CSCC2 [XAV939] (first compound 0.016 µM, partner dose 2 µM) | 96.7 | 54.7 | 101 | 92.8 | 138 | 91.4 |
| O=C(O)[C@@H]1[O][Sb](=[O])([O][Sb]2(=[O])[O][C@H]([C@H](O)CO)[C@H](O)[C@H](C(=O)O)[O]2)[O][C@H]([C@H](O)CO)[C@@H]1O (stereo partly specified) [stibogluconate] + O=C(O)c1ccc2c(c1)nc(Nc1cccc(Cl)c1)c1ccncc12 [CX4945] (first compound 2 µM, partner dose 0.4 µM) | 102 | 95.2 | 79.2 | 88.2 | 82.6 | 96.3 |
| Cn1nnc2c(C(N)=O)ncn2c1=O [temozolomide] + CCc1ccc(CCOc2ccc(CC3SC(=O)NC3=O)cc2)nc1 [pioglitazone] (first compound 2 µM, partner dose 2 µM) | 92.5 | 82.5 | 90.8 | 104 | 97 | 109 |
| Cc1cc(N2CCOCC2)cc2[nH]c(-c3c(NC[C@@H](O)c4cccc(Cl)c4)cc[nH]c3=O)nc12 + O=S(=O)(c1ccccc1)N(CC(F)(F)F)c1ccc(C(O)(C(F)(F)F)C(F)(F)F)cc1 [T0901317] (first compound 0.2 µM, partner dose 1.4 µM) | 96.1 | 90.4 | 68.6 | 102 | 71.2 | 91.7 |
| Cn1nnc2c(C(N)=O)ncn2c1=O [temozolomide] + CC1(C)NC(=O)N(c2ccc([N+](=O)[O-])c(C(F)(F)F)c2)C1=O [nilutamide] (first compound 2 µM, partner dose 1 µM) | 85.6 | 80.6 | 97.1 | 94.3 | 72.6 | 98.6 |
| O=C(O)c1ccc2c(c1)nc(Nc1cccc(Cl)c1)c1ccncc12 + CC(C)CCN1c2nc(Nc3cc(F)c(O)c(F)c3)ncc2N(C)C(=O)C1C [BID1870] (first compound 0.4 µM, partner dose 0.2 µM) | 88.3 | 74.9 | 99 | 64.2 | 112 | 85.4 |
| O=C(O)[C@@H]1[O][Sb](=[O])([O][Sb]2(=[O])[O][C@H]([C@H](O)CO)[C@H](O)[C@H](C(=O)O)[O]2)[O][C@H]([C@H](O)CO)[C@@H]1O (stereo partly specified) [stibogluconate] + CC(C)(C)c1cnc(CSc2cnc(NC(=O)C3CCNCC3)s2)o1 [SNS-032] (first compound 2 µM, partner dose 0.01 µM) | 104 | 101 | 97.7 | 104 | 105 | 92.2 |
| O=C(O)c1ccc2c(c1)nc(Nc1cccc(Cl)c1)c1ccncc12 + O=C(Nc1cccc(Cl)c1)Nc1ncc(CCNc2ncnc3ccsc23)s1 [SNS314] (first compound 0.4 µM, partner dose 0.0008 µM) | 76.2 | 84 | 99.1 | 83.5 | 99.8 | 107 |
| O=C(O)c1ccc2c(c1)nc(Nc1cccc(Cl)c1)c1ccncc12 + O=C(O)c1ccc(-c2c[nH]c3ncc(-c4ccccc4)cc23)cc1C1CCCC1 [GSK650394] (first compound 0.4 µM, partner dose 0.16 µM) | 93.3 | 86 | 86.9 | 87.5 | 118 | 88.6 |
| O=C(Nc1cc(C(F)(F)F)cc(C(F)(F)F)c1)c1cc(Cl)ccc1O + Nc1ccn([C@@H]2O[C@H](CO)[C@@H](O)C2(F)F)c(=O)n1 [gemcitabine] (first compound 0.016 µM, partner dose 0.0004 µM) | 93.5 | 87.8 | 81 | 105 | 83.6 | 106 |
| O=C(Nc1cc(C(F)(F)F)cc(C(F)(F)F)c1)c1cc(Cl)ccc1O + COc1ccc(C2=N[C@@H](c3ccc(Cl)cc3)[C@@H](c3ccc(Cl)cc3)N2C(=O)N2CCNC(=O)C2)c(OC(C)C)c1 [Nutlin-3] (first compound 0.016 µM, partner dose 0.1 µM) | 104 | 95.5 | 121 | 117 | 106 | 98.8 |
| O=C(Nc1cc(C(F)(F)F)cc(C(F)(F)F)c1)c1cc(Cl)ccc1O + CC(C)C[C@H](NC(=O)[C@H](Cc1ccccc1)NC(=O)c1cnccn1)B(O)O [Bortezomib] (first compound 0.016 µM, partner dose 0.001 µM) | 86.9 | 80.6 | 75.5 | 103 | 48.2 | 84.5 |
| O=C(O)c1ccc2c(c1)nc(Nc1cccc(Cl)c1)c1ccncc12 + C[C@]1(c2nc3c(C(N)=O)cccc3[nH]2)CCCN1 [Veliparib] (first compound 0.4 µM, partner dose 1.4 µM) | 105 | 43.4 | 96 | 77.8 | 82.9 | 101 |
| Cn1nnc2c(C(N)=O)ncn2c1=O [temozolomide] + C[C@@H]1CCN(C(=O)CC#N)C[C@@H]1N(C)c1ncnc2[nH]ccc12 [CP690550] (first compound 2 µM, partner dose 1 µM) | 90.9 | 76.8 | 93.7 | 102 | 104 | 118 |
| O=C(O)c1ccc2c(c1)nc(Nc1cccc(Cl)c1)c1ccncc12 + O=c1cc(-c2cccc3c2Sc2ccccc2S3)oc(N2CCOCC2)c1 [KU55933] (first compound 0.4 µM, partner dose 1 µM) | 98.7 | 105 | 95.9 | 83.1 | 91.1 | 98.1 |
| O=C(O)c1ccc2c(c1)nc(Nc1cccc(Cl)c1)c1ccncc12 + OCCn1cc(-c2cnc3nnn(Cc4ccc5ncccc5c4)c3n2)cn1 [PF04217903] (first compound 0.4 µM, partner dose 1 µM) | 112 | 101 | 88.5 | 69.3 | 113 | 86.4 |
| O=C(Nc1ccccc1)c1cc([N+](=O)[O-])ccc1Cl + Oc1nc(-c2ccc(C(F)(F)F)cc2)nc2c1CSCC2 [XAV939] (first compound 2 µM, partner dose 2 µM) | 98.6 | 60.8 | 82.9 | 115 | 93.1 | 98 |
| O=C(Nc1cc(C(F)(F)F)cc(C(F)(F)F)c1)c1cc(Cl)ccc1O + O=c1[nH]nc(Sc2ncc([N+](=O)[O-])s2)n1-c1ccc2c(c1)OCCO2 [BI78D3] (first compound 0.016 µM, partner dose 0.2 µM) | 101 | 95.2 | 97.3 | 101 | 93.3 | 107 |
| O=C(Nc1cc(C(F)(F)F)cc(C(F)(F)F)c1)c1cc(Cl)ccc1O + Nc1cccc2c1CN(C1CCC(=O)NC1=O)C2=O [lenalidomide] (first compound 0.016 µM, partner dose 1 µM) | 102 | 128 | 126 | 132 | 88.3 | 119 |
| O=C(Nc1cc(C(F)(F)F)cc(C(F)(F)F)c1)c1cc(Cl)ccc1O + NC(=O)c1ccc(N(C(N)=O)c2c(F)cccc2F)nc1-c1ccc(F)cc1F [VX702] (first compound 0.016 µM, partner dose 0.4 µM) | 104 | 113 | 98.3 | 103 | 97.9 | 74.4 |
| O=C(Nc1cc(C(F)(F)F)cc(C(F)(F)F)c1)c1cc(Cl)ccc1O + COc1cc(Nc2ncc(F)c(Nc3ccc4c(n3)NC(=O)C(C)(C)O4)n2)cc(OC)c1OC [Tamatinib] (first compound 0.016 µM, partner dose 0.4 µM) | 93.4 | 87.9 | 51.5 | 102 | 95 | 82.2 |
| O=C(O)c1ccc2c(c1)nc(Nc1cccc(Cl)c1)c1ccncc12 + CC(C)(C)c1cnc(CSc2cnc(NC(=O)C3CCNCC3)s2)o1 [SNS-032] (first compound 0.4 µM, partner dose 0.01 µM) | 84.3 | 86.3 | 63 | 114 | 87.6 | 93.1 |
| O=C(Nc1cc(C(F)(F)F)cc(C(F)(F)F)c1)c1cc(Cl)ccc1O + CCN(CC)CCCCNc1ncc2cc(-c3cc(OC)cc(OC)c3)c(NC(=O)NC(C)(C)C)nc2n1 [PD173074] (first compound 0.016 µM, partner dose 0.1 µM) | 97.4 | 109 | 108 | 111 | 121 | 96.6 |
| O=C(Nc1cc(C(F)(F)F)cc(C(F)(F)F)c1)c1cc(Cl)ccc1O + COc1cc(N2CCC(N3CCN(C)CC3)CC2)ccc1Nc1ncc(Cl)c(Nc2ccccc2S(=O)(=O)C(C)C)n1 [NVP-TAE684] (first compound 0.016 µM, partner dose 0.08 µM) | 90.6 | 98.3 | 78.8 | 84.9 | 82.7 | 90.5 |
| O=C(O)c1ccc2c(c1)nc(Nc1cccc(Cl)c1)c1ccncc12 + CC1(C)NC(=O)N(c2ccc([N+](=O)[O-])c(C(F)(F)F)c2)C1=O [nilutamide] (first compound 0.4 µM, partner dose 1 µM) | 120 | 101 | 97.1 | 82.6 | 106 | 124 |

Source: the supplement of paper PMC4604168 (melanoma cell lines)
